# Results published in paper PMC4336329 (PLoS ONE, 2015).
# About 14,000 (4.5%) of roughly 310,000 compounds showed an effect of 50% or more. The effect is printed as a negative number. Some of the results follow.
# Target: human ether-à-go-go-related gene (hERG) potassium channel (human, UniProt Q12809)
# Test: primary screen, population patch clamp on CHO cells stably expressing hERG
# 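Further: peak tail current of the secondary pulse compared with the same well before compound.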
# Chain of human ether-à-go-go-related gene (hERG) potassium channel (Q12809 whole entry, looked up): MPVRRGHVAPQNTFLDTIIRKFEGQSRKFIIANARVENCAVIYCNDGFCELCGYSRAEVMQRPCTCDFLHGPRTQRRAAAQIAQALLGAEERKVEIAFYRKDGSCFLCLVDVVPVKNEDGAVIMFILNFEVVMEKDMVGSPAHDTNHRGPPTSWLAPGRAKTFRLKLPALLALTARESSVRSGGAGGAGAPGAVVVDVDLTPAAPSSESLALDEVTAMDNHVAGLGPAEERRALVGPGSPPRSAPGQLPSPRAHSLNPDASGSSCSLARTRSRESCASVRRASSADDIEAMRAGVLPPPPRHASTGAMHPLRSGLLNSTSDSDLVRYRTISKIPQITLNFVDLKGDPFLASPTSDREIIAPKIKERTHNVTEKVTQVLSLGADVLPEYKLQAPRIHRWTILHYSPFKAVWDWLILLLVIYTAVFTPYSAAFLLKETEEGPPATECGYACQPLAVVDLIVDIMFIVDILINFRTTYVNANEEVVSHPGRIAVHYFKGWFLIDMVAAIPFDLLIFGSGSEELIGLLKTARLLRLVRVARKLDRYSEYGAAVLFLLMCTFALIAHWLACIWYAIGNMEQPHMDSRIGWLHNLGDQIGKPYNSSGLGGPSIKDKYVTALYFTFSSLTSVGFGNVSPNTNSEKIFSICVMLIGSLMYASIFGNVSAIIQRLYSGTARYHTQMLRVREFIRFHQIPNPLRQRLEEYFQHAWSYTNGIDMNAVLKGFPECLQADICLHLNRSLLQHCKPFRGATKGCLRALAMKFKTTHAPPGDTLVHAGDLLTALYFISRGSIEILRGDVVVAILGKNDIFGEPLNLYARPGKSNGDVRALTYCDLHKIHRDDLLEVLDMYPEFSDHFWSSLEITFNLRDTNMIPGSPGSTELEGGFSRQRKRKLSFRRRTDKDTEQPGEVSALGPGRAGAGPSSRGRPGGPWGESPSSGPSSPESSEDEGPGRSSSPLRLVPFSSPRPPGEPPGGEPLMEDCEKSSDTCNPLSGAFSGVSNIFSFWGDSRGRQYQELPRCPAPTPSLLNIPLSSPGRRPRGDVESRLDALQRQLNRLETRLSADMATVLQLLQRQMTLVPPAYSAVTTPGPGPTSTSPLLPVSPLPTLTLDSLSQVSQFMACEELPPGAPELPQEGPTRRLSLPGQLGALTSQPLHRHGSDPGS
row,SMILES,"hERG current change (%, negative = inhibition) at 10uM [%]"
1,Cn1nc(C(C)(C)C)cc1C(=O)O,18.5
2,Cn1cccc1Cc1nnc(SCC(=O)N2CCCC2)n1CCc1ccccc1,0.218
3,CC1(C)CC(=O)c2ccc(O)cc2O1,4.03
4,COc1ccc(C(=O)NC(Cc2ccc(OC(=O)c3ccc(OC)cc3)cc2)C(=O)O)cc1 (centres unmarked),20.1
5,CCOC(=O)/C=C/C(=O)OCC(=O)Nc1cccc(Cl)c1Cl,6.12
6,COc1ccc(-c2nn(-c3ccccc3)cc2C(=O)NCC2CCCO2)cc1 (centres unmarked),-0.557
7,O=C(Nc1cccc2ccccc12)c1cn(-c2ccccc2)nc1-c1cccs1,15.4
8,C=CCn1c(C)cc(C(=O)CSc2nc(N)cc(N)n2)c1C,7
9,O=Cc1c(NCc2ccc(F)cc2)c2ccccc2[nH]c1=O,2.59
10,C[C@@H]1C=C(C(=O)NC2CC2)O[C@H](OCc2ccc(CO)cc2)C1,-10.7
11,O=C(COc1ccc(S(=O)(=O)NC2CCCCC2)cc1)NCCC1=CCCCC1,2.33
12,O=c1[nH]c(C(Cl)Cl)nc2sc3c(c12)CCN(Cc1ccccc1)C3,-6.24
13,CN(CC(=O)Nc1ccc(N2CCOCC2)cc1)C(=O)CCc1ccccc1Cl,-17.8
14,COc1ccc(OC)c(NC(=O)CSc2ccc(-c3cccnc3)nn2)c1,-17.6
15,O=[N+]([O-])c1cccc(N/N=C/c2cc([N+](=O)[O-])ccc2O)c1,-1.34
16,O=C(CSc1ccccc1)Nc1nccs1,-3.78
17,CCn1c(CCCNC(=O)c2cccs2)nc2ccccc21,-15
18,Cc1cc(=O)oc2cc(OCC(=O)OCC(=O)NC3CC3)ccc12,16.4
19,CCS(=O)(=O)N1CCCC(C(=O)NCCCOC(C)C)C1 (centres unmarked),4.87
20,COc1ccc(NC(=S)NN2CCOCC2)cc1OC,-15.4
21,CCCN(C(=O)CSc1nc(C2CC2)n(-c2ccccc2)n1)C1CCS(=O)(=O)C1 (centres unmarked),-7.22
22,O=C(Nc1ccc(OCC(=O)N2CCC(Cc3ccccc3)CC2)cc1)c1ccco1,-20.6

row,SMILES,"hERG current change (%, negative = inhibition) at 10uM [%]"
1,COCCN(CC(=O)NC1CCCCC1)C(=O)CCCC(=O)Nc1ccccn1,10
2,COc1ccc2c(c1)Cc1sc(NC(C)=O)nc1-2,15.4
3,O=C(/C=C/c1ccccc1)CC(=O)c1ccccc1O,23.4
4,COc1cccc(-c2nnc3n2N=C(c2cc(OC)ccc2OC)CS3)c1,2.48
5,CCOc1ccc(NC(=O)c2sc3nc(N4CCOCC4)c4c(c3c2N)CC(C)(C)OC4)cc1,20.6
6,COc1ccccc1CNc1nc2nc3c(c(=O)n2[nH]1)CCC3,0.0608
7,CCCCCCN1CC(C(=O)OCC)C(=O)C1=O (centres unmarked),-22.5
8,CCOC(=O)CN1CC23C=CC(O2)C(C(=O)O)C3C1=O (centres unmarked),-6.7
9,COC(=O)/C=C(\C)NC(=O)c1ccccc1Cl,11.4
10,O=C(COC(=O)C1=Cc2ccccc2OC1)NC1CCCC1,17.3
11,O=S1(=O)CC(O)C(N2CCC(c3ccccc3)CC2)C1 (centres unmarked),7.68
12,N#Cc1cc(Sc2ccccn2)c(Sc2ccccn2)cc1C#N,5.64
13,CCN1CCN(c2nc(-c3cccs3)nc3ccccc23)CC1,-70.8
14,CCOc1ccc2cc(C#N)c(SCC(=O)NC(C)CC)nc2c1 (centres unmarked),5.6
15,CCOC(=O)N1CCC(NC(=O)c2cc(C(=O)Nc3ccc(OCC)cc3)ccc2CO)CC1,9.27
16,O=C(COC(=O)c1ccccc1[N+](=O)[O-])c1ccc(C2CCCCC2)cc1,3.94
17,CCOc1ncccc1C(=O)OCC(=O)c1ccc(Cl)s1,-0.952
18,CC(=O)c1c(C)[n+]([O-])c2ccc3c(non3O)c12,13.6
19,CC(C)(C)NC(=O)Cn1nc(C(F)(F)F)c2c1CCCC2,7.68
20,Cc1ccc(CCNC(=O)CCSCc2ccc(Cl)cc2)cc1,8.95
21,C/C(=N\Nc1ccc(Cl)c(C(=O)O)c1)c1cc2ccccc2o1,8.35
22,CCOC(=O)C1CCCN(CCC(=O)Nc2cc(C)cc(C)c2)C1 (centres unmarked),-58.4
